Measurements from the supplement of paper PMC4967469.

Assays:
Assay in all cases: Viability of human cancer cell lines after 72 h of drug (GDSC screen)
[1] = compound: C=C(c1ccc(C(=O)O)cc1)c1cc2c(cc1C)C(C)(C)CCC2(C)C [Bexarotene]; details: top dose 8 µM
Protocol: (§1)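 Human cancer cell lines in 384-well plates, medium with 10% serum, drug for 72 h over a 256-fold dose range (nine 2-fold or five 4-fold steps up to the top dose). Adherent lines were fixed and stained with the nucleic acid dye Syto60, suspension lines read with resazurin; signal relative to control wells, capped at 0 and 100%. One two-parameter sigmoid per drug and line, fitted in a mixed model over all curves with the slope shared within a line.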

[2] = compound: O=C(O)c1ccc(-c2c[nH]c3ncc(-c4ccccc4)cc23)cc1C1CCCC1 [GSK-650394]; details: top dose 16 µM; top dose inferred
Protocol: as §1

[3] = compound: Cc1ccc2nc(NCCN)c3ncc(C)n3c2c1 [BMS-345541]; details: top dose 16 µM
Protocol: as §1

[4] = compound: COc1cc(C(=O)NC2CCN(C)CC2)ccc1Nc1ncc2c(n1)N(C1CCCC1)C(C)CC(=O)N2C [NPK76-II-72-1]; details: top dose 10.24 µM; top dose inferred
Protocol: as §1

[5] = compound: Oc1nc(-c2ccc(C(F)(F)F)cc2)nc2c1CSCC2 [XAV 939]; details: top dose 5 µM; top dose inferred
Protocol: as §1

[6] = compound: COc1cc([C@@H]2c3cc4c(cc3[C@@H](O[C@@H]3O[C@@H]5CO[C@@H](C)O[C@H]5[C@H](O)[C@H]3O)[C@H]3COC(=O)[C@H]23)OCO4)cc(OC)c1O [Etoposide]; details: top dose 16 µM
Protocol: as §1

[7] = compound: COc1ccc(C(=O)CC2(O)C(=O)Nc3c(Cl)ccc(Cl)c32)cc1 [YK 4-279]; details: top dose 10 µM
Protocol: as §1

Row | Cell Line | AUC [1] | IC50 [1] [µM] | AUC [2] | IC50 [2] [µM] | AUC [3] | IC50 [3] [µM] | AUC [4] | IC50 [4] [µM] | AUC [5] | IC50 [5] [µM] | AUC [6] | IC50 [6] [µM] | AUC [7] | IC50 [7] [µM]
1 | ES3 (Ewing sarcoma, adherent) | 0.966 | > 8 | 0.93 | > 16 | 0.851 | 13.2 | 0.743 | 3.33 | 0.984 | > 5 | 0.446 | 0.709 | 0.733 | 3
2 | ES4 (Ewing sarcoma, adherent) | 0.713 | 2.22 | 0.692 | 3.78 | 0.887 | > 16 | 0.949 | > 10.2 | 0.98 | > 5 | 0.439 | 0.666 | 0.731 | 3.17
3 | GAMG (glioma, adherent) | 0.913 | > 8 | 0.627 | 2.28 | 0.876 | > 16 | 0.784 | 4.57 | 0.934 | > 5 | 0.634 | 2.39 | 0.778 | 4.26
4 | GCT (soft tissue, adherent) | 0.961 | > 8 | 0.987 | > 16 | 0.987 | > 16 | 0.989 | > 10.2 | 0.985 | > 5 | 0.699 | 3.45 | 0.675 | 1.84
5 | H2591 (mesothelioma, adherent) | 0.924 | > 8 | 0.927 | > 16 | 0.908 | > 16 | 0.959 | > 10.2 | 0.953 | > 5 | 0.642 | 2.79 | 0.774 | 5.16
6 | H2818 (mesothelioma, adherent) | 0.985 | > 8 | 0.989 | > 16 | 0.971 | > 16 | 0.979 | > 10.2 | 0.988 | > 5 | 0.963 | > 16 | 0.808 | 5.33
7 | HEL (acute myeloid leukaemia, semi-adherent) | 0.989 | > 8 | 0.769 | 5.08 | 0.844 | 8.72 | 0.878 | 7.47 | 0.991 | > 5 | 0.72 | 3.68 | 0.782 | 3.46
8 | HLE (liver, adherent) | 0.945 | > 8 | 0.507 | 1.04 | 0.971 | > 16 | 0.744 | 3.04 | 0.987 | > 5 | 0.417 | 0.603 | 0.703 | 2.24
9 | HO-1-N-1 (head and neck, adherent) | 0.986 | > 8 | 0.975 | > 16 | 0.894 | > 16 | 0.971 | > 10.2 | 0.932 | > 5 | 0.637 | 2.3 | 0.533 | 0.764
10 | HPAF-II (pancreas, adherent) | 0.88 | > 8 | 0.977 | > 16 | 0.877 | > 16 | 0.889 | > 10.2 | 0.935 | > 5 | 0.868 | > 16 | 0.797 | 6.44
11 | HSC-3 (head and neck, adherent) | 0.888 | 6.76 | 0.857 | 10.2 | 0.922 | > 16 | 0.986 | > 10.2 | 0.975 | > 5 | 0.562 |  | 0.588 | 1.05
12 | HTC-C3 (thyroid, adherent) | 0.926 | > 8 | 0.815 | 10.2 | 0.896 | > 16 | 0.937 | > 10.2 | 0.978 | > 5 | 0.873 | > 16 | 0.702 | 2.5
13 | Hs940-T (melanoma, adherent) | 0.865 | > 8 | 0.755 | 6.51 | 0.937 | > 16 | 0.984 | > 10.2 | 0.941 | > 5 | 0.536 | 1.28 | 0.848 | 9.99
14 | Hs-445 (Hodgkin lymphoma, suspension) | 0.989 | > 8 | 0.986 | > 16 | 0.842 | 10 | 0.824 | 5.48 | 0.988 | > 5 | 0.381 | 0.483 | 0.704 | 2.22
15 | IGR-37 (melanoma, adherent) | 0.811 | 3.8 | 0.797 | 6.82 | 0.958 | > 16 | 0.92 | > 10.2 | 0.981 | > 5 | 0.636 | 2.29 | 0.655 | 1.62
16 | JAR (urogenital system, adherent) | 0.987 | > 8 | 0.982 | > 16 | 0.838 | 10.5 | 0.899 | > 10.2 | 0.971 | > 5 | 0.958 | > 16 | 0.554 | 0.876
17 | KALS-1 (glioma, adherent) | 0.844 | > 8 | 0.835 | > 16 | 0.806 | 12.1 | 0.921 | > 10.2 | 0.946 | > 5 | 0.79 |  | 0.768 | 5.17
18 | KYSE-180 (oesophagus, adherent) | 0.731 | 2.19 | 0.626 | 2.19 | 0.831 | 9.49 | 0.922 | > 10.2 | 0.918 | > 5 | 0.635 | 2.32 | 0.661 | 1.71
19 | KYSE-270 (oesophagus, adherent) | 0.985 | > 8 | 0.609 | 1.9 | 0.866 | 11 | 0.922 | > 10.2 | 0.963 | > 5 | 0.278 | 0.263 | 0.683 | 1.86

Row | Cell Line | AUC [1] | IC50 [1] [µM] | AUC [2] | IC50 [2] [µM] | AUC [3] | IC50 [3] [µM] | AUC [4] | IC50 [4] [µM] | AUC [5] | IC50 [5] [µM] | AUC [6] | IC50 [6] [µM] | AUC [7] | IC50 [7] [µM]
20 | LC-2-ad (lung adenocarcinoma, adherent) | 0.891 | > 8 | 0.845 | 12 | 0.901 | > 16 | 0.663 | 1.84 | 0.961 | > 5 | 0.548 | 1.35 | 0.571 | 0.985
21 | LU-99A (large cell lung carcinoma, adherent) | 0.987 | > 8 | 0.871 | 14.8 | 0.979 | > 16 | 0.918 | > 10.2 | 0.986 | > 5 | 0.643 | 2.47 | 0.629 | 1.41
22 | MDA-MB-157 (breast, adherent) | 0.894 | > 8 | 0.984 | > 16 | 0.952 | > 16 | 0.936 | > 10.2 | 0.982 | > 5 | 0.849 | 12.5 | 0.845 | 7.5
23 | MFE-319 (endometrium, adherent) | 0.865 | 6.73 | 0.683 | 3.18 | 0.907 | > 16 | 0.895 | > 10.2 | 0.962 | > 5 | 0.517 | 1.11 | 0.728 | 2.71
24 | MKN1 (stomach, adherent) | 0.962 | > 8 | 0.802 | 8.4 | 0.845 | 12.5 | 0.926 | > 10.2 | 0.977 | > 5 | 0.388 | 0.482 | 0.756 | 3.59
25 | ML-1 (thyroid, adherent) | 0.728 | 2.51 | 0.825 | 11.9 | 0.949 | > 16 | 0.879 | > 10.2 | 0.969 | > 5 | 0.471 | 0.823 | 0.922 | > 10
26 | MZ7-mel (melanoma, adherent) | 0.985 | > 8 | 0.916 | > 16 | 0.776 | 6.61 | 0.902 | > 10.2 | 0.985 | > 5 | 0.683 | 3.33 | 0.771 | 3.98
27 | NB7 (neuroblastoma, adherent) | 0.986 | > 8 | 0.879 | > 16 | 0.876 | > 16 | 0.882 | > 10.2 | 0.759 | 1.82 | 0.93 | > 16 | 0.984 | > 10
28 | NCI-H196 (small cell lung carcinoma, adherent) | 0.985 | > 8 | 0.977 | > 16 | 0.923 | > 16 | 0.867 | 9.94 | 0.987 | > 5 | 0.971 | > 16 | 0.954 | > 10
29 | NCI-H1355 (lung adenocarcinoma, adherent) | 0.847 | > 8 | 0.835 | > 16 | 0.958 | > 16 | 0.972 | > 10.2 | 0.767 | 2.71 | 0.43 | 0.591 | 0.724 | 3.65
30 | NCI-H1915 (large cell lung carcinoma, adherent) | 0.902 | > 8 | 0.976 | > 16 | 0.923 | > 16 | 0.892 | > 10.2 | 0.986 | > 5 | 0.974 | > 16 | 0.704 | 2.38
31 | NCI-H2023 (lung adenocarcinoma, adherent) | 0.899 | > 8 | 0.935 | > 16 | 0.965 | > 16 | 0.972 | > 10.2 | 0.953 | > 5 | 0.816 | 11.8 | 0.773 | 4.87
32 | NCI-H2085 (lung adenocarcinoma, adherent) | 0.942 | > 8 | 0.862 | 15.7 | 0.853 | 14.2 | 0.976 | > 10.2 | 0.965 | > 5 | 0.736 | 5.03 | 0.912 | > 10
33 | NCI-H2170 (lung squamous cell carcinoma, adherent) | 0.913 | > 8 | 0.852 | 13.2 | 0.943 | > 16 | 0.94 | > 10.2 | 0.942 | > 5 | 0.587 | 1.75 | 0.82 | 6.07
34 | NUGC-3 (stomach, adherent) | 0.917 | > 8 | 0.873 | > 16 | 0.915 | > 16 | 0.983 | > 10.2 | 0.933 | > 5 | 0.522 | 1.16 | 0.655 | 1.78
35 | OAW-28 (ovary, adherent) | 0.94 | > 8 | 0.89 | > 16 | 0.969 | > 16 | 0.757 | 4.42 | 0.929 | > 5 | 0.615 | 2.25 | 0.75 | 4.04
36 | OSC-19 (head and neck, adherent) | 0.984 | > 8 | 0.866 | 15.3 | 0.89 | > 16 | 0.95 | > 10.2 | 0.891 | > 5 | 0.753 | 5.54 | 0.71 | 2.52
37 | OVCAR-3 (ovary, adherent) | 0.929 | > 8 | 0.934 | > 16 | 0.965 | > 16 | 0.986 | > 10.2 | 0.951 | > 5 | 0.886 | > 16 | 0.613 | 1.32
38 | PANC-10-05 (pancreas, adherent) | 0.937 | > 8 | 0.788 | 9.26 | 0.892 | > 16 | 0.939 | > 10.2 | 0.901 | > 5 | 0.619 | 2.34 | 0.837 | 9.6

The IC50 comes from the fitted curve, where viability falls to half of the control; a fit beyond the top or the lowest dose is shown as a bound at that dose. AUC, from the same fit, is the share of area under the viability curve across the 256-fold dose range: 1 means no effect, lower means more sensitive. For some assays here: Any top dose called inferred is not printed in the source and was worked back from the curve model.
